Assay results taken from the supplement of paper PMC11369174, “Proteome-scale characterisation of motif-based interactome rewiring by disease mutations” (Molecular Systems Biology, 2024).
This is one part of the list. Read counts after selection give these values, which scatter widely.

T1: GEF_Sec7__Q9Y6D5_639_829
T1 chain: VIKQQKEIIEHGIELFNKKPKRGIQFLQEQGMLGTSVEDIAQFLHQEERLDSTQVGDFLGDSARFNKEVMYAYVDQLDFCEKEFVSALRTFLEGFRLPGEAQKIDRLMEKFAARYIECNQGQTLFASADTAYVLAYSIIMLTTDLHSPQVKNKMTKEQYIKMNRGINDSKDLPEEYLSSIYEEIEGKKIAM

T2: SPOP_MATH__O43791_19_176
T2 chain: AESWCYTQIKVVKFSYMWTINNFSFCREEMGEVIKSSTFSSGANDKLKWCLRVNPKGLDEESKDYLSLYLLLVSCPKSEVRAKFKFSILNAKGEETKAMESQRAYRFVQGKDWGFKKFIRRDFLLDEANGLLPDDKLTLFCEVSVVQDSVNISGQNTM


The binders below were run against GABARAPL2_ATG8__P60520_2_115 (assay: mean normalised NGS count of phage-displayed peptide after selection on bait (% of reads); baits are purified protein domains named by gene / domain / UniProt id / residues; peptides come from disordered regions of human proteins; higher = stronger enrichment / binding). Conditions: replicate selections in which the peptide was seen: 6.
Sequence of GABARAPL2_ATG8__P60520_2_115 (chain, as listed by the source): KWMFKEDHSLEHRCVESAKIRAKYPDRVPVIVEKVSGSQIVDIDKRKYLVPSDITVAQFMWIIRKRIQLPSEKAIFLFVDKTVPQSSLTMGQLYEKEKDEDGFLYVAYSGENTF
For WSLEDLDLSGEEVQRL [DNAAF2 8-23 mut Q9NVR5.S8W], the “mean normalised NGS count” value was 0.164.
For LNADSWDFVAAIISIP [KCND1 587-602 mut Q9NSA2.R592W], the “mean normalised NGS count” value was 0.0246.
In the case of DDYVHISLPQATVTPP [TSC1 404-419 wt], the “mean normalised NGS count” value is reported as 1.47.
KHESGTTAWQLVNSSV [TTN 29707-29722 mut Q8WZ42.R29708H] was tested, and the “mean normalised NGS count” value was 0.00856.
For DDWIVDDDGIGYVEDG [POLA1 76-91 wt], the “mean normalised NGS count” value was 0.0691.
In the case of DDYVHISLPQATVIPP [TSC1 404-419 mut Q92574.T417I], the “mean normalised NGS count” value is reported as 91.3.
In the case of IVEKRESGTTAWQLVN [TTN 29704-29719 wt], the “mean normalised NGS count” value is reported as 0.0662.
In the case of EDGWWTVERNGQAGFV [PSTPIP1 393-408 mut O43586.R405C], the “mean normalised NGS count” value is reported as 0.0148.
With WTHLSSKEVDLSTGEL [SQSTM1 338-353 mut Q13501.P348L] the “mean normalised NGS count” value was 0.0354.
In the case of TVFETLDIGWQLLPIF [ATP6V1B2 472-487 mut P21281.R485P], the “mean normalised NGS count” value is reported as 0.082.
For EVSQVLKGYDWTLVPM [SOX9 76-91 mut P48436.A76E], the “mean normalised NGS count” value was 0.358.

The binders below were run against GABARAPL1_ATG8__Q9H0R8_2_115 in the same assay as above. Conditions: replicate selections in which the peptide was seen: 5.
For LNADSWDFVAAIISIP [KCND1 587-602 mut Q9NSA2.R592W], the “mean normalised NGS count” value was 0.0666.
AMDFEVLSTKFEMQDL [ZNF469 3015-3030 mut Q96JG9.T3016M] was tested, and the “mean normalised NGS count” value was 0.00738.
For NLSLNEAFVKVPRDDK [FOXC2 123-138 wt], the “mean normalised NGS count” value was 0.0123.
For DWIQLQYSQSLIEKDQ [CARD10 403-418 mut Q9BWT7.R404W], the “mean normalised NGS count” value was 0.107.
EDDQRQADRDWYMMDE [DHX38 316-331 wt] was tested, and the “mean normalised NGS count” value was 0.016.
With VSKAEEEFFNIIFAEL [DNAI2 545-560 mut Q9GZS0.D554N] the “mean normalised NGS count” value was 0.144.

What follows are binders tested against MAP1LC3B_ATG8__Q9GZQ8_2_119 in the same assay as above. Conditions: replicate selections in which the peptide was seen: 2.
With LNADSWDFVAAIISIP [KCND1 587-602 mut Q9NSA2.R592W] the “mean normalised NGS count” value was 0.00372.
VSKAEEEFFNIIFAEL [DNAI2 545-560 mut Q9GZS0.D554N] was tested, and the “mean normalised NGS count” value was 0.0227.

What follows are binders tested against GABARAPL2_ATG8__P60520_2_115 in the same assay as above. Conditions: replicate selections in which the peptide was seen: 4.
With SVAGHLSTSTTVSSSG [POGZ 60-75 wt] the “mean normalised NGS count” value was 1.77.
In the case of ADIHDFEIILHRVEWA [OCA2 665-680 wt], the “mean normalised NGS count” value is reported as 0.0112.
In the case of LAHSDDYVHISLPQAT [TSC1 400-415 wt], the “mean normalised NGS count” value is reported as 0.0166.

The binders below were run against MAP1LC3B_ATG8__Q9GZQ8_2_119 in the same assay as above. Conditions: replicate selections in which the peptide was seen: 5.
AMDFEVLSTKFEMQDL [ZNF469 3015-3030 mut Q96JG9.T3016M] was tested, and the “mean normalised NGS count” value was 2.07.
LPPEDDTWDNVYYYDE [CDH1 742-757 mut P12830.R749W] was tested, and the “mean normalised NGS count” value was 0.941.
AEEEWSYLEEEEGVSI [TTN 10418-10433 mut Q8WZ42.S10425L] was tested, and the “mean normalised NGS count” value was 0.0336.
For TVFETLDIGWQLLPIF [ATP6V1B2 472-487 mut P21281.R485P], the “mean normalised NGS count” value was 0.651.

What follows are binders tested against GABARAPL1_ATG8__Q9H0R8_2_115 in the same assay as above. Conditions: replicate selections in which the peptide was seen: 6.
With DDYVHISLPQATVTPP [TSC1 404-419 wt] the “mean normalised NGS count” value was 2.03.
REFALEDFTFLRDPWN [SCN2A 176-191 mut P35498.G177E] was tested, and the “mean normalised NGS count” value was 0.0141.
In the case of LPPEDDTWDNVYYYDE [CDH1 742-757 mut P12830.R749W], the “mean normalised NGS count” value is reported as 0.199.
With DKDEWQFLDQNEDAFE [BUB1 486-501 mut O43683.S492F] the “mean normalised NGS count” value was 0.0181.
With EERFEVLHGREAKVTE [TTN 913-928 wt] the “mean normalised NGS count” value was 0.0563.
GQARADESTYVLVAHS [IFIH1 821-836 mut Q9BYX4.R822Q] was tested, and the “mean normalised NGS count” value was 0.614.
With REFALEDFTFLRDPWN [SCN1A 176-191 mut P35498.G177E] the “mean normalised NGS count” value was 0.0141.
In the case of WTMVDPVREAREGGLI [SURF1 137-152 mut Q15526.R137W], the “mean normalised NGS count” value is reported as 0.451.
SSRSERGLVEEEWVIV [ANK2 1580-1595 wt] was tested, and the “mean normalised NGS count” value was 0.18.
In the case of LAHSDDYVHISLPQAT [TSC1 400-415 wt], the “mean normalised NGS count” value is reported as 0.108.
In the case of WTPESFIVVEEAGEFS [PTPN22 620-635 mut Q9Y2R2.R620W], the “mean normalised NGS count” value is reported as 0.235.
In the case of DDYVHISLPQATVIPP [TSC1 404-419 mut Q92574.T417I], the “mean normalised NGS count” value is reported as 80.4.
For REFALEDFTFLRDPWN [SCN3A 176-191 mut P35498.G177E], the “mean normalised NGS count” value was 0.0141.
With SITGTTVREEHFEVLH [TTN 905-920 mut Q8WZ42.R915H] the “mean normalised NGS count” value was 0.532.
For AEEEWSYLEEEEGVSI [TTN 10418-10433 mut Q8WZ42.S10425L], the “mean normalised NGS count” value was 0.117.
In the case of IVEKRESGTTAWQLVN [TTN 29704-29719 wt], the “mean normalised NGS count” value is reported as 0.16.
For EDGWWTVERNGQAGFV [PSTPIP1 393-408 mut O43586.R405C], the “mean normalised NGS count” value was 0.197.
In the case of WTHLSSKEVDLSTGEL [SQSTM1 338-353 mut Q13501.P348L], the “mean normalised NGS count” value is reported as 0.028.
TVFETLDIGWQLLPIF [ATP6V1B2 472-487 mut P21281.R485P] was tested, and the “mean normalised NGS count” value was 2.25.
For GDDDWTHLSSKEVDLS [SQSTM1 334-349 mut Q13501.P348L], the “mean normalised NGS count” value was 0.76.
For DSLDLNADSWDFVAAI [KCND1 583-598 mut Q9NSA2.R592W], the “mean normalised NGS count” value was 0.141.
With EVSQVLKGYDWTLVPM [SOX9 76-91 mut P48436.A76E] the “mean normalised NGS count” value was 0.757.
SITGTTVREERFEVLH [TTN 905-920 wt] was tested, and the “mean normalised NGS count” value was 0.614.

What follows are binders tested against MAP1LC3B_ATG8__Q9GZQ8_2_119 in the same assay as above. Conditions: replicate selections in which the peptide was seen: 6.
DDYVHISLPQATVTPP [TSC1 404-419 wt] was tested, and the “mean normalised NGS count” value was 0.901.
EERFEVLHGREAKVTE [TTN 913-928 wt] was tested, and the “mean normalised NGS count” value was 0.144.
WTMVDPVREAREGGLI [SURF1 137-152 mut Q15526.R137W] was tested, and the “mean normalised NGS count” value was 0.833.
In the case of SSRSERGLVEEEWVIV [ANK2 1580-1595 wt], the “mean normalised NGS count” value is reported as 2.17.
In the case of LAHSDDYVHISLPQAT [TSC1 400-415 wt], the “mean normalised NGS count” value is reported as 0.341.
With DDYVHISLPQATVIPP [TSC1 404-419 mut Q92574.T417I] the “mean normalised NGS count” value was 26.3.
In the case of SITGTTVREEHFEVLH [TTN 905-920 mut Q8WZ42.R915H], the “mean normalised NGS count” value is reported as 3.12.
WTHLSSKEVDLSTGEL [SQSTM1 338-353 mut Q13501.P348L] was tested, and the “mean normalised NGS count” value was 5.15.
In the case of GDDDWTHLSSKEVDLS [SQSTM1 334-349 mut Q13501.P348L], the “mean normalised NGS count” value is reported as 16.
For DSLDLNADSWDFVAAI [KCND1 583-598 mut Q9NSA2.R592W], the “mean normalised NGS count” value was 0.462.
With SITGTTVREERFEVLH [TTN 905-920 wt] the “mean normalised NGS count” value was 0.575.

The binders below were run against GABARAPL2_ATG8__P60520_2_115 in the same assay as above. Conditions: replicate selections in which the peptide was seen: 2.
APFLPNHPVISLKRNE [GLDC 777-792 wt] was tested, and the “mean normalised NGS count” value was 0.0627.
For RELFEFFANNTTIHGA [SCNN1A 56-71 wt], the “mean normalised NGS count” value was 0.0554.
For VQLDQLGMRMQHNLEQ [SPTAN1 2295-2310 mut Q13813.D2295V], the “mean normalised NGS count” value was 0.0166.
In the case of ADIHDFVIILHRVEWA [OCA2 665-680 mut Q04671.E671V], the “mean normalised NGS count” value is reported as 0.00462.
For GDDDWTHLSSKEVDLS [SQSTM1 334-349 mut Q13501.P348L], the “mean normalised NGS count” value was 0.013.
In the case of DSLDLNADSWDFVAAI [KCND1 583-598 mut Q9NSA2.R592W], the “mean normalised NGS count” value is reported as 0.00153.

Same assay, conditions: replicate selections in which the peptide was seen: 3
With DKDEWQFLDQNEDAFE [BUB1 486-501 mut O43683.S492F] the “mean normalised NGS count” value was 0.0056.
With ATYPRLLEGEDAHLSS [KRT14 413-428 mut P02533.R416P] the “mean normalised NGS count” value was 0.714.
In the case of WTPESFIVVEEAGEFS [PTPN22 620-635 mut Q9Y2R2.R620W], the “mean normalised NGS count” value is reported as 0.00865.
In the case of ATYPRLLEGEDAHLSS [KRT16 413-428 mut P02533.R416P], the “mean normalised NGS count” value is reported as 0.714.
With YSAAWVLLAPTWHTSA [CASR 4-19 mut P41180.L13P] the “mean normalised NGS count” value was 0.0142.
STISPYYRQSLFRTVL [CRYAA 42-57 wt] was tested, and the “mean normalised NGS count” value was 0.0854.
In the case of HFVMVEVHHPDSEPDV [WHRN 720-735 mut Q9P202.R728H], the “mean normalised NGS count” value is reported as 0.00872.

Each binder was assayed against MAP1LC3B_ATG8__Q9GZQ8_2_119 in the same assay as above. Conditions: replicate selections in which the peptide was seen: 3.
For DKDEWQFLDQNEDAFE [BUB1 486-501 mut O43683.S492F], the “mean normalised NGS count” value was 0.0695.
In the case of DWIQLQYSQSLIEKDQ [CARD10 403-418 mut Q9BWT7.R404W], the “mean normalised NGS count” value is reported as 0.457.

Target: T1, GEF_Sec7__Q9Y6D5_639_829
Assay: as above
Conditions: replicate selections in which the peptide was seen: 2
LRAKVAQLQTDYDALK [CEP135 1082-1097 wt] was tested, and the “mean normalised NGS count” value was 17.4.

These binders were tested against GABARAPL2_ATG8__P60520_2_115 in the same assay as above. Conditions: replicate selections in which the peptide was seen: 5.
For GQARADESTYVLVAHS [IFIH1 821-836 mut Q9BYX4.R822Q], the “mean normalised NGS count” value was 0.102.
With TVGLAQQWVQLDQLGM [SPTAN1 2287-2302 mut Q13813.D2295V] the “mean normalised NGS count” value was 0.00623.
For FEVVMEKDMVGSLAHD [KCNH2 129-144 mut Q12809.P141L], the “mean normalised NGS count” value was 0.00702.
With QWYLADIFTTAVDIRW [KCNJ2 66-81 mut P63252.R67W] the “mean normalised NGS count” value was 0.0339.

Target: T2, SPOP_MATH__O43791_19_176
Assay: as above
Conditions: replicate selections in which the peptide was seen: 4
For IVEKRESGTTAWQLVN [TTN 29704-29719 wt], the “mean normalised NGS count” value was 0.394.
